# Measured values as given in the supplement of paper PMC3334620.
# The full ranking holds about 33,000 sequences; the median of “E-score (-0.5 to 0.5)” is about -0.041, and the highest 2% start at about 0.37. The list shows a part of the results.
# Target: T1, Ecm22 (UniProt Q05958)
# T1 sequence: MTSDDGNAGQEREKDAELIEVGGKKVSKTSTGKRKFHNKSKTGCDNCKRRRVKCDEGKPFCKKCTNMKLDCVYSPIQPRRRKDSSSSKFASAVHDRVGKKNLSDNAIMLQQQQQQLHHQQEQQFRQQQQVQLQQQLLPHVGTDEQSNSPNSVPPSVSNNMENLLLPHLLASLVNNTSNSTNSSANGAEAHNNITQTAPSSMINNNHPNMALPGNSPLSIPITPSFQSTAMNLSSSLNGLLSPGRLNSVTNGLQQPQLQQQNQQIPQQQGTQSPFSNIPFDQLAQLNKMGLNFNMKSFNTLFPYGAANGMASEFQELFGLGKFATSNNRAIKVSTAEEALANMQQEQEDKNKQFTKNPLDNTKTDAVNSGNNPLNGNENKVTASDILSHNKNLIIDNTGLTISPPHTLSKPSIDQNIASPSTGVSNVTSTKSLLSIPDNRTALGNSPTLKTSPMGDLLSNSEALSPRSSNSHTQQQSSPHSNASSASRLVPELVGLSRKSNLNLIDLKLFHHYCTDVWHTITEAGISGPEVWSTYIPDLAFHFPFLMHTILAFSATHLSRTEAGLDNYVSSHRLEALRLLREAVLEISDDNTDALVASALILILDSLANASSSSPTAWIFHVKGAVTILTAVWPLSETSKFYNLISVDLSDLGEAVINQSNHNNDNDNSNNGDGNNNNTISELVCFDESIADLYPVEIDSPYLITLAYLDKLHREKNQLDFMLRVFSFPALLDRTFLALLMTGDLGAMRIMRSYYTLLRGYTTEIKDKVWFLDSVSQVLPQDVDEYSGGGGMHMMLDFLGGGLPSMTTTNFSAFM
# Assay: PBM E-score (8-mer binding enrichment) (E-score (-0.5 to 0.5)); higher = stronger / more preferred TF binding; most listed sequences are background and not binding sites
# Details: protein concentration: 200 nM; construct: GST-full length
# Summary of the method: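 Universal all-10-mer Agilent arrays, fresh or stripped once, were converted to double-stranded form by primer extension. GST-tagged yeast transcription factors from PURExpress in vitro transcription/translation, full-length or DNA-binding domain only, were applied at about 100-200 nM and detected with fluorescent anti-GST. After masliner normalisation, the Universal PBM Analysis Suite scored each ungapped eight-base word together with its reverse complement by E-score.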
row,Sequence,PBM E-score
1,AGTCGGCG,0.0443
2,GAGGGATC,-0.0216
3,CCCAACGA,-0.0238
4,ACCTTAGT,-0.211
5,GACGACTC,-0.0985
6,TAAGCAGA,-0.188
7,CCAACGCA,-0.125
8,ATCCTAAA,0.0576
9,GGACATGA,-0.0431
10,ACAACTAA,0.0503
11,GCAAGTCA,-0.117
12,ACTGACAA,-0.101
13,ACCTAATA,0.229
14,TCGGGGCA,-0.073
15,TCATCGGA,-0.0141
16,GTGCTTAA,-0.096
17,CCAGAAGG,-0.136
18,GACCTCCC,-0.144
19,ACATTTTC,-0.055
20,ATCGTCAC,-0.00661
21,TAGGATAA,0.0736
22,CGCTAACC,0.0848
23,AAATAAGG,0.0436
24,AGCTCCAC,-0.105

row,Sequence,PBM E-score
1,AGGAAGAC,-0.25
2,ACACGATG,0.17
3,GGTATAAC,0.0372
4,GCATTAAC,0.0478
5,ACGCCTCA,-0.176
6,ATCGGCGC,0.0415
7,GTTACTTA,-0.0193
8,AGTTTTAG,-0.164
9,GCGCCCGA,0.0828
10,AAGACGCA,-0.186
11,CACCAGAG,-0.0293
12,TAGCGACA,0.191
13,CAGCTCGG,0.131
14,GTATCGGA,0.199
15,ACACGAAT,0.217
16,AAGCCAGA,-0.18
17,AACCTAAT,-0.0523
18,ATTCCGCG,-0.0423
19,ACTACCGA,0.0453
20,CTGCCTGA,-0.168
21,AATATGAA,-0.149
22,CACGGAAA,0.0529
23,ATCACAAT,0.00653
24,GAGTCCGC,-0.199

row,Sequence,PBM E-score
1,TAGATGGA,-0.14
2,GGACGCAC,-0.122
3,GTAGAATA,0.0292
4,TCCACGCA,-0.0188
5,CTAGCAAC,0.118
6,ACGTGACG,-0.0464
7,AGCAGACA,-0.178
8,CACAAAGG,-0.0764
9,ACGGACAT,0.141
10,CCACAGCC,-0.0882
11,CCCAGTCC,-0.236
12,CCCACTGA,-0.165
13,GTGACATA,-0.131
14,CTCCAGAG,-0.298
15,CCTCCTAG,-0.245
16,AGGACTGG,-0.348
17,AATTCAAA,-0.00386
18,ACCAAGGG,-0.0669
19,GGGTGTAA,0.0443
20,ATAGTCAA,0.115
21,AGGGTGCC,-0.364
22,GGTCGCGA,0.248
23,CACTCCCG,-0.101
24,CGGACAAG,0.108

row,Sequence,PBM E-score
1,CTAAGAAG,-0.0845
2,CAAACCCA,-0.192
3,GAGCGACC,0.305
4,GAATAGTA,0.124
5,CGTATCCA,0.299
6,AGTAAATC,-0.201
7,AACACGCC,-0.0315
8,GGATAAGA,-0.12
9,AAGATTGA,-0.203
10,GAAATGTC,0.0172
11,ACATTTAT,-0.114
12,GCTCTTTA,0.0801
13,ACGGACTC,0.0106
14,ACTGAGAA,-0.0118
15,GCAACCCC,-0.263
16,ATGACGAG,0.0778
17,CGGGATTA,0.0663
18,ATAAATGG,-0.14
19,ATCGTTGA,0.183
20,AGCATTAG,-0.263
21,CACCTTAG,-0.335
22,ATCGTCAA,0.0354
